Data on 35 molecules can be found in PubChem BioAssay (NCI).

Each structure is given as a SMILES string. Several values for one entry are separate records, joined by “and”; a condition that tells them apart may be missing. Identical values can stand only once.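 How tested: cells in 96-well plates exposed to compound for 48 hours at five concentrations. Abbreviation: GI50, concentration required for 50% inhibition of growth. TGI: total growth inhibition.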

For this experiment, the system named is NCI-H322M lung. As to the kind of experiment: DTP human tumour cell line panel, 48 h.
By GI50 is commonly meant the concentration at which growth is held to half of that of the control. A word on the TGI: it is the concentration at which net growth stops. Read a low TGI as more potent growth arrest. For `CN1CCC(C(=O)Nc2n[nH]c3nc(-c4ccc(O)cc4)c(Br)cc23)CC1`, the GI50 was 6.04 µM and 8.93 µM; the TGI was > 25 µM. With `CCO/C=C1\N=C(C(Cl)c2ccccc2)OC1=O` (stereo not given), the TGI was > 100 µM. On the same count and under the same terms, the result for `Cc1ccc(-c2cc(=O)c3cc(C)c(C)c(C(=O)O)c3o2)cc1` reads > 100 µM.

Turning to `NC(=S)N/N=C/c1ccc(O)cn1`, the GI50 was 28.5 µM and 7.03 µM; the TGI was 434 µM and 835 µM. `Cc1oncc1NC1=CC(=O)C(=O)c2ccccc21` came in with a TGI of 38.4 µM.

The molecule `COc1ccc(N2C(N)=C(C#N)C(C#N)(C#N)C2c2cccc([N+](=O)[O-])c2)cc1` (stereo not given) showed a TGI of 32.7 µM. With `NC(=O)CCC(NC(=O)c1cccc2c(=O)c3ccccc3[nH]c12)C(=O)O` (stereo not given), the concentration for total growth inhibition (TGI) is > 100 µM. Turning to `COc1ccc(/C=N/n2cnc3c(c2=O)S/C(=C2/SC(=S)N(c4ccc(C)cc4)C2=O)N3c2ccccc2)cc1`, the concentration for total growth inhibition (TGI) is > 100 µM.

Regarding `O=C(O)C1C(=O)Oc2c(cccc2[N+](=O)[O-])C1O` (stereo not given), the concentration for total growth inhibition (TGI) was > 100 µM. Regarding `COC1=C2C[C@H](O)C(C)C[C@@]2(OC)OC1=O` (stereo not given in full), the concentration for total growth inhibition (TGI) is > 100 µM.

`CC(C)=CCCC1(Sc2ccccc2)C(=O)OCC1C=C(C)C` (stereo not given): the concentration for total growth inhibition (TGI) is > 100 µM.

Turning to `O=S(=O)(O)c1cc(Nc2ccnc3ccccc23)c2c(S(=O)(=O)O)cc(S(=O)(=O)O)cc2c1`, the TGI is > 100 µM.

Turning to `Cc1cc(Nc2ccc(F)cc2)nc(N2CCN(c3ccnc4cc(Cl)ccc34)CC2)n1`, the GI50 is > 100 µM and the total growth inhibition concentration (TGI) was > 100 µM. Regarding `NC(=O)C(=Cc1ccc(CP(=O)(O)O)cc1)C(N)=O`, the TGI is > 100 µM. As for `CCOC(=O)C1C[C@H]2CO[C@H](c3ccccc3)N2C1=O` (stereo not given in full), the TGI is > 100 µM. Turning to `N/C(=N\N=C\c1cc2c(cc1Cl)OCO2)NO`, the TGI was > 100 µM. Consider `CCOC(=O)NC1=C(N2CC2)C(=O)C(NC(=O)OCC)=C(N2CC2)C1=O`, for which the GI50 is 21.8 µM; the TGI is 25 µM and 49 µM.

Consider `COc1ccc(/C(Cl)=C(\C=O)c2ccccc2)cc1OC`, for which the TGI was > 100 µM. For `O=C1c2ccccc2-c2nnc(-c3ccc(Cl)cc3)cc21`, the TGI is > 10 µM. On the same count and under the same terms, with `COc1ccc2nc(NCN3C(=O)c4ccccc4C3=O)sc2c1` the figure was > 100 µM; with `COc1nc2ccc(CNc3ccc(C(=O)O)cc3)cc2nc1OC`, > 10 µM. With `O=c1nc(NC(c2ccccc2)(c2ccccc2)c2ccccc2)ccn1CCO`, the TGI was > 100 µM. For the molecule `Clc1cc(OCC23CC4CC(CC(C4)C2)C3)nc(OCC23CC4CC(CC(C4)C2)C3)n1`, the TGI is > 100 µM. As to `C[C@@H](NC(=O)[C@@H](CC(=O)N1CCC(N2CCCCC2)CC1)N1C(=O)[C@@H](N2C(=O)OC[C@@H]2c2ccccc2)[C@H]1/C=C/c1cccc(Cl)c1)c1ccccc1`, the GI50 is 3.42 µM and the TGI worked out at 15.7 µM.

In the case of `CCCCOC(=O)c1ccc(NC(=O)CCl)cc1`, the GI50 was 11.6 µM and the total growth inhibition concentration (TGI) turned out to be 24 µM.

For `O=[N+]([O-])c1ccc2nc(/C=C(\O)c3ccccc3)c(/C=C(\O)c3ccccc3)nc2c1`, the TGI is > 100 µM. On to `OC(C1CO1)C(O)C1CO1` (stereo not given), for which the GI50 was 110 µM; the TGI was 150 µM and 325 µM. Turning to `C=CC[C@@H]1C=C[C@@H](C(=O)OC)n2c(=O)n(-c3ccccc3)c(=O)n21`, the TGI is > 100 µM. `CN(C)CCCNc1cnc2cc3ccccc3cc2n1`: the total growth inhibition concentration (TGI) came to 88.4 µM. In the case of `COc1ccc2nc3cc([N+](=O)[O-])ccc3c(NCCCN(CCO)CCO)c2c1`, the GI50 was 7.09 µM and the TGI came to 19.1 µM.

In the case of `CCCCCCCC(=O)OCC(C[As](=O)(O)O)OC(=O)CCCCCCC` (stereo not given), the concentration for total growth inhibition (TGI) came to 29.4 µM. For the molecule `c1ccc(Nn2c(CCCCCCCCc3nnc(COc4ccccc4)n3Nc3ccccc3)nnc2COc2ccccc2)cc1`, the GI50 was > 300 µM and the concentration for total growth inhibition (TGI) was > 300 µM. `Oc1ccc2ccccc2c1C1NN=C(c2ccccc2)S1` (stereo not given): the GI50 was 0.575 µM and the TGI was > 72.5 µM. With `COc1cc(C2c3cc4c(cc3OC3(OC)COC(=O)C23)OCO4)cc(OC)c1OC` (stereo not given), the TGI is > 100 µM. In the case of `COP(=O)(OC)c1ccc(NCc2cc(O)ccc2O)cc1`, the TGI is > 100 µM.
